± gives the standard deviation of the averaged measurements. In all, about 33,000 sequences were measured (“E-score (dimensionless, -0.5 to 0.5)”: median about -0.046, highest 2% from about 0.36 on). The list shows a part of the results.
The sequences below were run on T1, SpTbr T-box DNA-binding domain (GST fusion) (assay: PBM E-score of 8-mer (E-score (dimensionless, -0.5 to 0.5)); Tbr is Tbrain of the sea star Patiria miniata (Pm) or the sea urchin Strongylocentrotus purpuratus (Sp); higher = stronger binding preference; most listed sequences are background and not binding sites). Conditions: the construct has about 5 more residues each side.
T1 sequence: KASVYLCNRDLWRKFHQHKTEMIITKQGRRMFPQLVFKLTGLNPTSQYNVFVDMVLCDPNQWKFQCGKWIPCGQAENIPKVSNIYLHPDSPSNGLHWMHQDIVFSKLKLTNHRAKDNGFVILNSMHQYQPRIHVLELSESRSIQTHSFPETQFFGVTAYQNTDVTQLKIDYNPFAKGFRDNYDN
How it was run: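 Primer extension turned Universal Agilent oligonucleotide arrays double-stranded. They were incubated with 200 nM protein in PBS (pH 7.5); the protein was a GST-fused Tbr T-box DNA-binding domain expressed in BL21 E. coli at 20 °C and purified on glutathione. Every ungapped 8-mer was scored from the scanned, quantified probe intensities, and the Universal PBM Analysis Suite gave each an enrichment E-score averaged over duplicate arrays.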

Sequence	PBM E-score of 8-mer
AAAGTGAG	0.217 ± 0.0053
AAGCAACG	0.0438 ± 0.048
GAACCGCA	-0.00701 ± 0.015
AACCTAGA	-0.042 ± 0.1
ATGACTGA	-0.135 ± 0.071
CTAGTGGA	-0.0602 ± 0.015
AATGCTAC	-0.187 ± 0.1
CGCATTCA	0.0689 ± 0.063
GTCTCTTA	-0.347 ± 0.015
CCGCAACA	0.0118 ± 0.013
CGCATCAG	0.0129 ± 0.043
CCGTTCTA	-0.13 ± 0.032
CGCGCCAA	0.276 ± 0.0051
TGAAGGAA	-0.165 ± 0.12
ACGGGTCG	-0.00861 ± 0.033
ATATCACC	0.263 ± 0.018
ATTTAATG	-0.17 ± 0.084
ATGTAGCC	-0.159 ± 0.068
ACATTGGA	-0.00588 ± 0.085
ACGAAGCT	-0.11 ± 0.043
AGAGCCGC	0.00354 ± 0.061
ATCAACCA	-0.112 ± 0.0075
CCGAGCCG	-0.117 ± 0.01
CCGGTTAC	-0.0168 ± 0.021
ATGATCAA	-0.116 ± 0.014

Sequence	PBM E-score of 8-mer
GGTCCTAC	-0.312 ± 0.052
GCTGATCA	0.179 ± 0.059
TATTGAAA	-0.12 ± 0.12
ATTCTTGA	-0.149 ± 0.058
ATTGCCCG	-0.19 ± 0.013
AGCGCTGA	0.0449 ± 0.0044
CATGGCAG	-0.0797 ± 0.0087
AACAACCC	0.164 ± 0.048
CTGTCCTA	-0.212 ± 0.027
GATTCGTA	-0.0563 ± 0.056
CATCGAAG	-0.125 ± 0.058
AATTCTGG	-0.185 ± 0.043
ATTCGTGC	0.0379 ± 0.014
ACTCTAAG	-0.088 ± 0.024
CGATTGCA	0.0731 ± 0.063
ACTAGTCG	0.081 ± 0.0035
CCCCTTAG	-0.184 ± 0.068
AAAGGCTT	-0.2 ± 0.039
AATGTTGA	-0.0789 ± 0.084
TGATAGAA	-0.0293 ± 0.037
GATTCTTA	-0.203 ± 0.062
AAGTGCTG	0.246 ± 0.04
ACTCATTC	0.0654 ± 0.058
GTATATTA	-0.129 ± 0.14
CGCTATCC	0.15 ± 0.0043

Sequence	PBM E-score of 8-mer
AGGTCTAC	-0.24 ± 0.034
TCTCCAAA	-0.125 ± 0.17
GCACTCGA	0.0852 ± 0.007
CGAATAGA	0.115 ± 0.036
CCTTGGCG	0.245 ± 0.06
ACTTATTA	0.0431 ± 0.084
ACCAGTTC	0.0411 ± 0.019
CATAAGCG	0.082 ± 0.058
GAGCTTAA	-0.251 ± 0.056
CTTCCACC	-0.138 ± 0.056
CCGGTACG	-0.1 ± 0.024
AGGAGTAA	-0.0244 ± 0.029
ATCAGGGA	-0.232 ± 0.029
AAGTTGGC	0.164 ± 0.024
ATGCTATG	-0.0836 ± 0.038
GCTGTTCC	-0.0355 ± 0.05
ATCTAGTA	-0.14 ± 0.028
GTCCGTAA	-0.212 ± 0.059
CCGGAGAA	-0.0246 ± 0.0038
CGTGTGAC	0.399 ± 0.012
GCCATCCA	-0.0481 ± 0.055
CTACTACC	-0.112 ± 0.033
TGCCTTAA	-0.0697 ± 0.059
ACACGTAA	0.198 ± 0.014
GGTTAAAA	-0.0212 ± 0.0034

Sequence	PBM E-score of 8-mer
GGGAGACC	-0.123 ± 0.14
GTGATGTA	0.101 ± 0.021
AACCCGCC	-0.0633 ± 0.025
CTCACGCC	0.397 ± 0.039
GTACAGAA	-0.162 ± 0.013
CACACTGA	0.235 ± 0.0071
ATATAGGG	-0.191 ± 0.11
GTCGCCCA	0.198 ± 0.0069
CTTGTCAC	0.39 ± 0.013
CGTGGGTA	-0.0186 ± 0.14
CTGAGTCC	-0.142 ± 0.055
AGATGTGG	0.0631 ± 0.036
AGCATGAC	-0.0727 ± 0.016
AATCGATC	-0.0423 ± 0.085
GCAAGTAC	0.0144 ± 0.0029
GAAAGGGC	-0.121 ± 0.0016
AAGACAAG	-0.16 ± 0.012
TTCTCCAA	-0.107 ± 0.059
GCAAGGCC	-0.162 ± 0.012
CGCTAACG	0.373 ± 0.0088
CCTAAACA	0.00347 ± 0.059
ATATCCAA	-0.0515 ± 0.011
CCGAGCGC	0.0157 ± 0.028
AATTGTTC	0.0645 ± 0.035
TAGTCTAA	-0.202 ± 0.03

Sequence	PBM E-score of 8-mer
GAGGTAGC	-0.102 ± 0.033
ACAAAACG	0.0152 ± 0.048
AATAGTGT	0.207 ± 0.018
CGGTCACA	0.302 ± 0.022
ACCGGTCC	-0.309 ± 0.027
AGCAGACC	-0.12 ± 0.02
AAGTCGTG	0.208 ± 0.025
GACTAACA	0.17 ± 0.0022
CCTCTGTA	0.0243 ± 0.041
GGAGGGGA	-0.0561 ± 0.07
GCCAACAA	0.195 ± 0.062
CCAGCAAG	-0.202 ± 0.012
CCTATGCC	-0.203 ± 0.043
CACGGCCA	0.115 ± 0.058
TGCGGTAA	0.0466 ± 0.037
CCGACGAG	0.0831 ± 0.058
CGGGGCAG	-0.0573 ± 0.064
CTTGAATC	-0.202 ± 0.067
CTGGAGGA	-0.0624 ± 0.0024
CAAGATCC	-0.0979 ± 0.055
CACCCAAG	0.198 ± 0.013
GAGAACTA	0.18 ± 0.0067
TCATAGCA	0.0536 ± 0.006
TACCCCCA	-0.355 ± 0.015
AGCCTTAC	-0.217 ± 0.027

Sequence	PBM E-score of 8-mer
CGTGCTGA	0.22 ± 0.0033
AACCTAGG	-0.0376 ± 0.091
GCCGGGAA	-0.00315 ± 0.045
AAACGACG	0.0405 ± 0.044
CAGCATCC	-0.136 ± 0.017
GATCCTGA	-0.149 ± 0.0074
CCGAGGGC	-0.1066 ± 0.00054
ACTCCTGC	-0.266 ± 0.017
AAGCAGAG	-0.224 ± 0.015
ATCTCGGG	0.037 ± 0.043
GCAGACCA	-0.213 ± 0.021
ACGCGACA	0.283 ± 0.0092
GCACTTTA	0.306 ± 0.024
CATCTTAG	0.0503 ± 0.11
GTTTACCA	0.0208 ± 0.048
ATCGATAG	0.0741 ± 0.14
ATCACCTC	0.387 ± 0.0097
GTAGGGGA	-0.221 ± 0.017
ATGCCAAT	0.00685 ± 0.011
AGCGTCCC	-0.148 ± 0.0096
GAATAAAC	-0.177 ± 0.13
ACGCGACT	0.122 ± 0.059
GCGTGGTA	0.0125 ± 0.0024
ACGAGGAA	-0.124 ± 0.011
CCGTCGCA	0.122 ± 0.0018

Sequence	PBM E-score of 8-mer
CAATACGG	-0.202 ± 0.091
CATTCGGG	-0.1774 ± 0.001
AGCAAGTG	0.272 ± 0.03
ACTAGCTC	-0.225 ± 0.0097
CCGTCTCA	0.0549 ± 0.013
GCGCGTCA	0.265 ± 0.028
AATTTATA	-0.172 ± 0.016
CATGAAGG	-0.0262 ± 0.011
ATTGGAGG	0.00082 ± 0.053
CGACTACC	-0.0334 ± 0.062
ATGCGACC	0.0792 ± 0.023
GCATCCAA	-0.252 ± 0.048
CTTGTTAC	0.203 ± 0.006
ATGGTTAA	-0.161 ± 0.044
AAGGCCTT	-0.277 ± 0.097
ATCCTAGA	-0.254 ± 0.05
AGGGTACG	-0.0187 ± 0.047
ACAGTAGA	-0.0367 ± 0.079
CAGTAGGG	-0.121 ± 0.0042
ATAGTCGG	-0.131 ± 0.025
GGCGCGGA	0.193 ± 0.069
ACGTCCCC	-0.0424 ± 0.052
AGTGTGAC	0.445 ± 0.011
CAGTGCGA	0.386 ± 0.0039
CCGAAGCC	-0.24 ± 0.018

Sequence	PBM E-score of 8-mer
AGCTGATG	-0.127 ± 0.019
CCGGACTC	-0.225 ± 0.025
CAGTACAG	-0.111 ± 0.043
AATCCCCT	-0.167 ± 0.065
AATTAGTC	-0.181 ± 0.033
GCCCAACA	0.0923 ± 0.037
CAGGCTTC	-0.0859 ± 0.019
ACTGGTCA	-0.134 ± 0.026
GATTATAA	-0.145 ± 0.04
AGCGGTAC	0.0745 ± 0.046
AAAGGATA	-0.165 ± 0.0067
ATTGAGAG	-0.119 ± 0.047
AAGGGCAT	0.0223 ± 0.028
AGTCCGAT	-0.149 ± 0.061
AATCACAA	0.212 ± 0.018
GTCTCAAC	-0.0155 ± 0.044
CGGCTCAC	0.0994 ± 0.041
CCGGGGAA	-0.282 ± 0.02
CGCGAGCC	0.15 ± 0.081
AATGGAAA	-0.271 ± 0.031
GCAGAGAA	-0.328 ± 0.0058
GCCGGTCC	-0.235 ± 0.075
AGGCTTCC	-0.213 ± 0.078
CCCGTGAA	0.212 ± 0.014
TTGGTAAA	-0.22 ± 0.0026

Sequence	PBM E-score of 8-mer
GAATCGCC	0.0803 ± 0.041
CGGATGTA	-0.17 ± 0.018
AGGAGGCA	-0.182 ± 0.054
GTAGAAAA	-0.0889 ± 0.057
TGATCTAA	-0.12 ± 0.1
AGCCGATA	-0.0865 ± 0.011
GGTCTGAA	-0.234 ± 0.021
CTTGACTC	-0.225 ± 0.016
GCTGTGGA	0.151 ± 0.058
ACAGACGG	0.134 ± 0.036
AAATGGCC	-0.263 ± 0.029
ACTTACGG	-0.122 ± 0.027
ATGAGGCC	-0.252 ± 0.034
CAAAGGGA	-0.259 ± 0.0031
TGCGTTAA	0.208 ± 0.026
ACGGCGGA	-0.211 ± 0.039
AGTACCAA	-0.141 ± 0.0034
CCGGGCCC	-0.0921 ± 0.12
AGCACGTC	0.167 ± 0.0033
